Some of the results follow. Most values come without repeats; read them as rough.
The molecules below were run on A375 (assay: cell count relative to DMSO control; melanoma cells; higher = more viable cells). Settings: library dose: standard library concentration; 72 h.
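Further: cells treated in 1,536-well plates, then fixed and DAPI-stained, with nuclei counted from automated high-throughput microscope images.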

Row | SMILES | cell count
1 | Cn1nnc2c(C(N)=O)ncn2c1=O [temozolomide] + O=C(O)c1ccc(-c2c[nH]c3ncc(-c4ccccc4)cc23)cc1C1CCCC1 [GSK650394] (first compound 10 µM, partner dose 0.8 µM) | 114%
2 | Cn1nnc2c(C(N)=O)ncn2c1=O [temozolomide] + CCN(CC)CCCCNc1ncc2cc(-c3cc(OC)cc(OC)c3)c(NC(=O)NC(C)(C)C)nc2n1 [PD173074] (first compound 10 µM, partner dose 0.5 µM) | 140%
3 | O=C(O)[C@@H]1[O][Sb](=[O])([O][Sb]2(=[O])[O][C@H]([C@H](O)CO)[C@H](O)[C@H](C(=O)O)[O]2)[O][C@H]([C@H](O)CO)[C@@H]1O (stereo not given in full) [stibogluconate] + OCc1c[nH]c2ccccc12 [Indole-3-carbinol] (first compound 10 µM, partner dose 4 µM) | 113%
4 | Cn1nnc2c(C(N)=O)ncn2c1=O [temozolomide] + O=C(Nc1cccc(Cl)c1)Nc1ncc(CCNc2ncnc3ccsc23)s1 [SNS314] (first compound 10 µM, partner dose 0.004 µM) | 93%
5 | O=C(Nc1cc(C(F)(F)F)cc(C(F)(F)F)c1)c1cc(Cl)ccc1O + Cc1cc(N2CCOCC2)cc2[nH]c(-c3c(NC[C@@H](O)c4cccc(Cl)c4)cc[nH]c3=O)nc12 [BMS536924] (first compound 0.08 µM, partner dose 1 µM) | 117%
6 | O=C(O)c1ccc2c(c1)nc(Nc1cccc(Cl)c1)c1ccncc12 + Cn1cncc1[C@@](N)(c1ccc(Cl)cc1)c1ccc2c(c1)c(-c1cccc(Cl)c1)cc(=O)n2C [tipifarnib] (first compound 2 µM, partner dose 0.05 µM) | 85.5%
7 | Cc1cc(N2CCOCC2)cc2[nH]c(-c3c(NC[C@@H](O)c4cccc(Cl)c4)cc[nH]c3=O)nc12 + COc1cc2c(Oc3ccc4[nH]c(C)cc4c3F)ncnc2cc1OCCCN1CCCC1 [cediranib] (first compound 1 µM, partner dose 2 µM) | 110%
8 | O=C(Nc1cc(C(F)(F)F)cc(C(F)(F)F)c1)c1cc(Cl)ccc1O + Cc1ccc(Nc2nccc(N(C)c3ccc4c(C)n(C)nc4c3)n2)cc1S(N)(=O)=O [Pazopanib] (first compound 0.08 µM, partner dose 2 µM) | 81.3%
9 | O=C(O)c1ccc2c(c1)nc(Nc1cccc(Cl)c1)c1ccncc12 + O=C(CCCCCCC(=O)Nc1ccccc1)NO [vorinostat] (first compound 2 µM, partner dose 0.4 µM) | 71.1%
10 | Cn1nnc2c(C(N)=O)ncn2c1=O [temozolomide] + NC(=O)Nc1cc(-c2cccc(F)c2)sc1C(=O)N[C@H]1CCCNC1 [AZD7762] (first compound 10 µM, partner dose 0.1 µM) | 57.9%
11 | O=C(Nc1cc(C(F)(F)F)cc(C(F)(F)F)c1)c1cc(Cl)ccc1O + NC1(c2ccc(-c3nc4ccn5c(=O)[nH]nc5c4cc3-c3ccccc3)cc2)CCC1 [MK2206] (first compound 0.08 µM, partner dose 2 µM) | 99.2%
12 | O=C(O)[C@@H]1[O][Sb](=[O])([O][Sb]2(=[O])[O][C@H]([C@H](O)CO)[C@H](O)[C@H](C(=O)O)[O]2)[O][C@H]([C@H](O)CO)[C@@H]1O (stereo not given in full) [stibogluconate] + Nc1cccc2c1CN(C1CCC(=O)NC1=O)C2=O [lenalidomide] (first compound 10 µM, partner dose 5 µM) | 113%
13 | O=C(O)[C@@H]1[O][Sb](=[O])([O][Sb]2(=[O])[O][C@H]([C@H](O)CO)[C@H](O)[C@H](C(=O)O)[O]2)[O][C@H]([C@H](O)CO)[C@@H]1O (stereo not given in full) [stibogluconate] + Nc1nc(F)nc2c1ncn2[C@@H]1O[C@H](CO)[C@@H](O)[C@@H]1O [fludarabine] (first compound 10 µM, partner dose 1 µM) | 32.9%
14 | O=C(O)c1ccc2c(c1)nc(Nc1cccc(Cl)c1)c1ccncc12 + OCc1c[nH]c2ccccc12 [Indole-3-carbinol] (first compound 2 µM, partner dose 4 µM) | 105%
15 | Cn1nnc2c(C(N)=O)ncn2c1=O [temozolomide] + Cn1cncc1[C@@](N)(c1ccc(Cl)cc1)c1ccc2c(c1)c(-c1cccc(Cl)c1)cc(=O)n2C [tipifarnib] (first compound 10 µM, partner dose 0.05 µM) | 109%
